{"source": "ChEMBL document CHEMBL4888484", "about": "“Replenishing the malaria drug discovery pipeline: Screening and hit evaluation of the MMV Hit Generation Library 1 (HGL1) against asexual blood stage Plasmodium falciparum ,using a nano luciferase reporter read-out” (2022)", "note": "About 540 (0.36%) of roughly 150,000 compounds showed an effect of 50% or more. This is one part of the list.", "data": [{"system": "Plasmodium falciparum", "test": "Primary screen in NF54 nanoGlo assay, in single point, at 2uM, 72h; a lower Z score goes with more inhibition", "type": "functional, Erythrocyte", "details": "timepoint 72 hour", "units": {"% Inhibition": "%"}, "values": [{"smiles": "OC(CN1CCCC1Cn1cncn1)c1ccc(F)c(F)c1", "note": "(centres undefined)", "% Inhibition": 13, "Z score": -1.48}, {"smiles": "Cc1occc1C(=O)NCc1cccnc1N1CCOCC1", "% Inhibition": -3, "Z score": 0.51}, {"smiles": "Cn1cc(NC(=O)COc2ccc(Cl)cc2C2CCCCC2)cn1", "% Inhibition": -3, "Z score": 0.39}, {"smiles": "CCn1c(N2CCC(C(=O)NCCCN3CCOCC3)CC2)cc(=O)n(C)c1=O", "% Inhibition": -9, "Z score": 1.48}, {"smiles": "COc1cc(NC(=O)N(C)Cc2cnc(C)s2)ccc1Cl", "% Inhibition": 5, "Z score": -0.48}, {"smiles": "CC(C)c1ccc(S(=O)(=O)N2CC(=O)N(C3CCCC3)C3(CCCCC3)C2)cc1", "% Inhibition": -11, "Z score": 1.61}, {"smiles": "CCCNC(=O)c1ccc(N2CCc3[nH]nc(-c4cccc(F)c4)c3C2)nc1", "% Inhibition": -2, "Z score": 0.37}, {"smiles": "O=C1C[C@H](c2nc(-c3ccc(N4CCCC4)cc3)no2)CN1c1ccccc1", "% Inhibition": -5, "Z score": 0.67}, {"smiles": "c1ccc(Cn2cc3ccccc3n2)cc1", "% Inhibition": -8, "Z score": 1.12}, {"smiles": "C=CCN=C(NCCc1cccc(F)c1)NCC1(O)CCOCC1", "% Inhibition": -2, "Z score": 0.34}, {"smiles": "Cc1ccc(Cn2ncc3ccc(C(=O)N[C@@H](C)c4ccc(F)cc4)cc32)cc1", "% Inhibition": -15, "Z score": 1.36}, {"smiles": "O=C(Nc1ccccc1C(F)(F)F)C1=C(c2ccccc2)S(=O)(=O)CCO1", "% Inhibition": 7, "Z score": -0.88}, {"smiles": "FC(F)(F)[C@@H](c1ccccc1)N1CCN(CC2OCCO2)CC1", "% Inhibition": -6, "Z score": 1.02}, {"smiles": "CO[C@H]1CCN(c2ccc(C(=O)NCc3ccc(-c4ccnn4C)nc3)cc2)C1", "% Inhibition": 0, "Z score": -0.02}, {"smiles": "Cc1ncc2n1CC[C@H](C(=O)N1CCc3c(Cl)cccc3C1)C2", "% Inhibition": -14, "Z score": 1.85}, {"smiles": "O=S(=O)(c1ccc(-c2cc(C(F)(F)F)[nH]n2)o1)N1CC[C@H](O)C1", "% Inhibition": -9, "Z score": 1.84}, {"smiles": "Cc1cc(CN2C3CCC2CC(CC(F)F)C3)oc1C(=O)O", "note": "(centres undefined)", "% Inhibition": 0, "Z score": -0.01}, {"smiles": "Clc1ccc(NC2(c3noc(C4CCOCC4)n3)CCC2)cc1", "% Inhibition": -10, "Z score": 1.33}, {"smiles": "CC1CCC(C(N)=O)CN1C(=O)c1cc2ccccc2c(=O)[nH]1", "note": "(centres undefined)", "% Inhibition": -5, "Z score": 0.68}, {"smiles": "COc1ccc(C(=O)C[C@@]2(O)C(=O)N(CN3CCOCC3)c3ccccc32)c(OC)c1", "% Inhibition": 9, "Z score": -1.11}, {"smiles": "Cc1ccc(NC(=O)c2ccc(Oc3ccc(F)cc3Br)nc2)nc1", "% Inhibition": 1, "Z score": -0.27}, {"smiles": "O=c1[nH]ccc2cc(-c3cc(OC(F)(F)F)ccc3O)ccc12", "% Inhibition": -1, "Z score": 0.1}, {"smiles": "CN(c1cccnc1)S(=O)(=O)c1ccc(Br)cc1F", "% Inhibition": 4, "Z score": -0.5}, {"smiles": "Cc1nc2c(c(N3CCCC3)n1)CCN(C(=O)c1cn3ccsc3n1)C2", "% Inhibition": -17, "Z score": 3.52}, {"smiles": "CCN1[C@H](c2ccc(Cl)cc2)[C@H](CNCc2ccccc2)C[C@]1(C)CO", "% Inhibition": -12, "Z score": 1.53}, {"smiles": "COc1ccc(OC)c([C@@H](O)CNC(=O)NCc2ccco2)c1", "% Inhibition": -6, "Z score": 0.95}, {"smiles": "C[C@H](NC(=O)c1cc2n(n1)CCO2)C(=O)N1Cc2ccccc2C1", "% Inhibition": -11, "Z score": 1.9}, {"smiles": "C[C@H](Nc1cnc2c(c1)CN(C(=O)OC(C)(C)C)CC2)c1ncco1", "% Inhibition": 0, "Z score": 0.06}, {"smiles": "CN(C)Cc1csc(CN2CCO[C@H](c3cccnc3)C2)c1", "% Inhibition": -7, "Z score": 1.35}, {"smiles": "CCO[C@@H](C)C(=O)NCc1cc(C(C)(C)C)n[nH]1", "% Inhibition": 6, "Z score": -1.05}, {"smiles": "CC[C@H]1COCCN1C(=O)Cc1csc(C)n1", "% Inhibition": -22, "Z score": 2.99}, {"smiles": "COc1cccc(C(=O)N[C@H]2CCN(C3CCCCC3)C2=O)c1F", "% Inhibition": -8, "Z score": 1.23}, {"smiles": "Cc1cccc(-c2nc3[nH]c(CN4CCN(C)CC4)cc(=O)n3n2)c1", "% Inhibition": 4, "Z score": -0.48}, {"smiles": "CC(C)c1nnc(CN2CCC(CNC(=O)c3cncnc3)CC2)o1", "% Inhibition": 5, "Z score": -0.75}, {"smiles": "CS(=O)(=O)N(Cc1ccc2c(c1)OCCO2)C1CCCC1", "% Inhibition": -8, "Z score": 1.07}, {"smiles": "C[C@@H](Cn1ccnc1-c1ccc(F)cc1F)N1CCN(C)CC1", "% Inhibition": 8, "Z score": -0.99}, {"smiles": "N#CC1(c2ccc(Cl)cc2)Cc2ccccc2C1", "% Inhibition": 0, "Z score": -0.04}, {"smiles": "CCc1onc(C)c1CN1CCn2c(Cc3ccccc3)nnc2C1", "% Inhibition": 6, "Z score": -0.74}, {"smiles": "CCCCS(=O)(=O)NCCn1cc(-c2ccoc2)cn1", "% Inhibition": -7, "Z score": 1.31}, {"smiles": "C[C@@](CO)(NC(=O)NCC1(c2ccccc2)CC1)C1CC1", "% Inhibition": -4, "Z score": 0.57}, {"smiles": "O=C(CCn1cncn1)NCc1ccc(Cl)s1", "% Inhibition": -10, "Z score": 1}, {"smiles": "COc1cnc(CN(C)[C@@H](C)c2ccccc2)cc1O", "% Inhibition": -10, "Z score": 1.35}, {"smiles": "CCOC[C@H]1CCCCN1c1nc(C)ns1", "% Inhibition": -1, "Z score": 0.08}, {"smiles": "CC(C)(C)c1nccc(N2CC(=O)NC3CCCCC32)n1", "note": "(centres undefined)", "% Inhibition": -14, "Z score": 1.64}, {"smiles": "O=C1c2ccc(Cl)cc2C(=O)N1CC1CCCCC1", "% Inhibition": 3, "Z score": -0.47}, {"smiles": "CCN(CC)S(=O)(=O)c1ccc(C(=O)NC(C)(C)CC)cc1", "% Inhibition": -3, "Z score": 0.51}, {"smiles": "CN1CCN(CCn2c(-c3ccccc3)cn3c4ccccc4nc23)CC1", "% Inhibition": -4, "Z score": 0.62}, {"smiles": "Cc1ccccc1NC(=O)N1CCC2(CC1)NC(=O)c1ccccc1N2C", "% Inhibition": -7, "Z score": 0.83}, {"smiles": "c1ccc(-c2noc(NC3CC3)n2)cc1", "% Inhibition": -8, "Z score": 1.68}, {"smiles": "CCC[C@H](C)C(=O)N(C)C1CCN(c2ccccn2)CC1", "% Inhibition": -16, "Z score": 2.46}, {"smiles": "CN(C(=O)c1c(F)c(F)cc(F)c1F)c1ncccc1F", "% Inhibition": -5, "Z score": 0.84}, {"smiles": "O=C(Nc1cccc2cccnc12)C1CN(c2nc3ccccc3s2)C1", "% Inhibition": -11, "Z score": 1.73}, {"smiles": "CC1(C)C[C@@](C)(c2ccccc2)c2ccccc2N1C(=O)Cc1cccc2ccccc12", "% Inhibition": 19, "Z score": -2.51}, {"smiles": "CC(C)(C)CCCC(=O)NCCn1cnnc1C1CC1", "% Inhibition": -7, "Z score": 1.32}, {"smiles": "CCC1(CC)OC2c3cc(Cl)cc(Cl)c3OC(C)N2c2ccccc21", "note": "(centres undefined)", "% Inhibition": -8, "Z score": 0.97}, {"smiles": "CCC(CC)CNC(=O)C(=O)N1CCO[C@@H](C)C1", "% Inhibition": 24, "Z score": -3.67}, {"smiles": "Cc1cccc(NCCCNc2ccccn2)n1", "% Inhibition": -5, "Z score": 0.85}, {"smiles": "COc1cc(C(=O)N[C@@H]2[C@@H]3CCO[C@@H]3[C@H]2NC(C)=O)ccn1", "% Inhibition": -5, "Z score": 0.94}, {"smiles": "Cc1ccc(C)c(C(=O)N2C[C@H]3CC[C@@H](C2)N(Cc2ccccn2)C3)c1", "% Inhibition": 0, "Z score": -0.04}, {"smiles": "COc1cc2c(c(OC)c1OC)CCN(c1nc(C)cnc1C)CC2", "% Inhibition": -18, "Z score": 2.09}, {"smiles": "O=C(NCCCn1cncn1)C1CCCC1", "% Inhibition": 0, "Z score": 0.03}, {"smiles": "Cc1noc(CCCC(=O)N(C2CC2)[C@H]2CCc3ccccc32)n1", "% Inhibition": 3, "Z score": -0.5}, {"smiles": "O=C(c1cccc(Br)c1)N1CCCN(c2nc(C3CCOCC3)nc3c2cnn3-c2ccccc2)CC1", "% Inhibition": -2, "Z score": 0.32}, {"smiles": "O=C(O)CCc1cc2n(n1)CCCN(Cc1ccc(C3CCCC3)s1)C2", "% Inhibition": -12, "Z score": 1.79}, {"smiles": "CN(C)S(=O)(=O)NCCCC1CCCCC1", "% Inhibition": -12, "Z score": 1.85}, {"smiles": "N#Cc1ccc(NCCNC(=O)c2cnccn2)nc1", "% Inhibition": -5, "Z score": 0.63}, {"smiles": "Cc1nn(-c2ccccc2)c(C)c1C(=O)Nc1ccc(OCc2ccccc2)cc1", "% Inhibition": -3, "Z score": 0.5}, {"smiles": "CN(Cc1ccon1)C(=O)c1ccc(N2CCCC2)nc1", "% Inhibition": -2, "Z score": 0.2}, {"smiles": "CS(=O)(=O)CC1(COc2ccc([C@@H]3CCC(=O)N3)cc2)CC1", "% Inhibition": -5, "Z score": 0.71}, {"smiles": "COc1cc([C@@H]2C3=C(O)N(C(C)=O)CC3=Nc3cccc4c3c2cn4CCC(C)C)cc(OC)c1OC", "% Inhibition": 0, "Z score": -0.02}, {"smiles": "O=C(Cc1c(F)cccc1Cl)NC(Cc1ccncc1)[C@H]1C[C@@H](O)C1", "note": "(some centres undefined)", "% Inhibition": -1, "Z score": 0.14}, {"smiles": "COCCCNC(=O)[C@@H]1CC2(CCN(C(=O)c3cc(C)on3)CC2)C(=O)N1C", "% Inhibition": -1, "Z score": 0.12}, {"smiles": "Cc1cc(N)n(CC(=O)N[C@H]2COCC[C@@H]2Oc2ccccn2)n1", "% Inhibition": 0, "Z score": -0.06}, {"smiles": "O=C(c1ccc(-c2ccc(O)cc2F)cc1)N1CCN([C@H]2CCNC2)CC1", "% Inhibition": -14, "Z score": 1.57}, {"smiles": "CN1CCOCC1C(=O)OC(C1CC1)C(F)(F)F", "note": "(centres undefined)", "% Inhibition": 5, "Z score": -0.5}, {"smiles": "O=C(NCc1nccs1)N1CCN(S(=O)(=O)c2ccccc2)CC1", "% Inhibition": -10, "Z score": 1.32}, {"smiles": "O=c1c(-c2ccccc2)c(O)cc(-c2ccncc2)n1-c1ccc(Cl)cc1", "% Inhibition": -14, "Z score": 1.61}, {"smiles": "O=c1c2cc3c(nc2ncn1CCN1CCOCC1)CCCC3", "% Inhibition": -6, "Z score": 0.83}, {"smiles": "Cc1noc(CN2N=C(C(=O)N3CCCCC3)S(=O)(=O)c3ccccc32)n1", "% Inhibition": -3, "Z score": 0.4}, {"smiles": "CC1(C)CN(Cc2ncccn2)CC[C@]1(C)O", "% Inhibition": -12, "Z score": 2.22}, {"smiles": "Cn1nc(C2CC2)nc1COc1cccn2ccnc12", "% Inhibition": 17, "Z score": -2.18}, {"smiles": "CCn1ccc2ccc(CCC(=O)NCC3CC3)cc21", "% Inhibition": 8, "Z score": -0.86}, {"smiles": "N#Cc1ccccc1NC(=O)c1cc(S(=O)(=O)N2CCCCC2)cs1", "% Inhibition": -28, "Z score": 2.45}, {"smiles": "OB(O)c1ccc(-n2nccc2C2CC2)cc1", "% Inhibition": 25, "Z score": -2.84}, {"smiles": "C[C@@H]1CN(C(=O)NCc2ccc(F)cc2)C[C@]1(C)O", "% Inhibition": -2, "Z score": 0.4}, {"smiles": "COc1nc(-c2ccc3c(c2)OCO3)n(-c2ccc(NC(=O)c3ccc(F)cc3)cc2)n1", "% Inhibition": -12, "Z score": 1.4}, {"smiles": "Cc1c(-c2nnc(C(=O)N[C@@H](C)Cc3ccco3)o2)oc2c(C)cccc12", "% Inhibition": 5, "Z score": -0.59}]}]}
